The full ranking holds about 110,000 compounds; the median of “z-score” is about -0.1, and the highest 2% start at about 2. The list shows a part of the results. Active and inactive are the calls of the source.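 The calls were made as follows: active = z-score in the third read window above 3 or below -3; inactive = the rest.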

Among the data in PubChem BioAssay AID488969 (Vanderbilt High Throughput Screening Facility, 2010) are z-score values, retold here.

The target of this test is Metabotropic glutamate receptor 8 (Rattus norvegicus) (UniProt P70579). The test is described as follows: rat mGluR8 modulators via GIRK flux, primary screen, cell-based, thallium flux, HTS (AID 488969). The following applies: HEK293 rat mGluR8, GIRK (G protein-gated inwardly rectifying potassium channel) thallium flux, FluoZin2; at 10 µM; stronger effect = higher value; submaximal glutamate (EC20) added with thallium.
UniProt P70579, sequence (P70579 whole entry, looked up): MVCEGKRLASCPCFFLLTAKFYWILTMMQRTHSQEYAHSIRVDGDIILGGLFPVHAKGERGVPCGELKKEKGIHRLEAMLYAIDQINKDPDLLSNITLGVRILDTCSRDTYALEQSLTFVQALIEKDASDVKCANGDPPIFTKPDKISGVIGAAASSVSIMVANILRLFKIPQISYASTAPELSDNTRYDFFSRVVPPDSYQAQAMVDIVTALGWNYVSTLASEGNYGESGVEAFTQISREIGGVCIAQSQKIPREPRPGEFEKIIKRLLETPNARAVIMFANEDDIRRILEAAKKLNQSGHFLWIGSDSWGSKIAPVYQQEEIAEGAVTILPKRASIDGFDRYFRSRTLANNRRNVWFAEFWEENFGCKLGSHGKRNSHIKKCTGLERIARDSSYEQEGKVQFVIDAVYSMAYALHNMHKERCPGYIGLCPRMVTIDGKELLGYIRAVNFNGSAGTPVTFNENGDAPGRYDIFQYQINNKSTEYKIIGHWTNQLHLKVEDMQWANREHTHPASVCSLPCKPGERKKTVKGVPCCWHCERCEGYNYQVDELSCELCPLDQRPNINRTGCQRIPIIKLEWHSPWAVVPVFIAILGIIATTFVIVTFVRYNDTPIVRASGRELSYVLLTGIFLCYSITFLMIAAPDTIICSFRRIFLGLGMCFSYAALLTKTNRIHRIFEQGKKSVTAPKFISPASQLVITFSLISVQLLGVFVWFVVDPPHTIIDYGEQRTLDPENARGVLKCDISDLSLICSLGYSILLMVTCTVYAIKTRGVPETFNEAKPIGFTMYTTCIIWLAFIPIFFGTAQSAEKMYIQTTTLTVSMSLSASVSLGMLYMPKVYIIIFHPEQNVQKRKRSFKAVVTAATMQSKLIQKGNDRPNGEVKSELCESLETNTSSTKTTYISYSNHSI
Molecule `CN(C)CCNC(=S)Nc1cccc(Cl)c1` had a z-score of 0.0585. Molecule `Cc1cc(N2C(=O)C3C4C=CC(C4)C3C2=O)no1` (stereo not given) showed a z-score of 0.639. Under `CC(C)(C)NC(=O)c1cc(Cl)ccc1[N+](=O)[O-]` stands -0.172; under `O=C(N/N=C/C=C/c1ccco1)/C(=C/c1ccccc1)NC(=O)c1ccccc1`, -0.138. Under `CC1(C)CN(c2ccccc2)N(C(=O)c2ccc(F)cc2)C1=O` stands -0.346. Take `Cc1ccc(N2C(=O)CC(N(CCc3ccccc3)C(=S)Nc3ccc(N(C)C)cc3)C2=O)cc1` (stereo not given): the z-score is -0.0866.

For the molecule `Cc1nn(-c2cccc(Cl)c2)c2c1C(c1cccnc1)C(C#N)=C(N)O2` (stereo not given), the z-score turned out to be 0.0248. For `COC1(C)CC2C(CC1OC(=O)c1cc([N+](=O)[O-])cc([N+](=O)[O-])c1)C2(C)C` (stereo not given), the z-score was determined as 0.0533.

Molecule `O=C(CCc1n[nH]c(=O)[nH]c1=O)N1CCOCC1` yielded a z-score of -0.0563. The figure for `CC1CCN(S(=O)(=O)N2CCC(C(=O)NCCN3CCOCC3)CC2)CC1` is -0.151; for `CC(C)C(=O)Nc1cccc(NC(=O)c2cccnc2)c1` it is 0.0323; for `Cc1ccc(S(=O)(=O)c2nc(S(C)(=O)=O)sc2NCC2CCCO2)cc1` (stereo not given) it is 0.195. Under `CCCCOC(=O)Cc1c(O)c2ccccc2[nH]c1=O` stands 0.389. Turning to `CCc1cccc2c(C(=O)COC(=O)c3cccc(S(=O)(=O)N(C)C4CCCCC4)c3)c[nH]c12`, the z-score was 0.724. Molecule `CCn1c(SCC(=O)N2CCN(c3ccccc3)CC2)nnc1-c1cc2cc(Cl)ccc2o1` had a z-score of -0.00365. `O=[N+]([O-])c1cc(Br)c(O)c(/C=N/Nc2nnnn2-c2cccc3ccccc23)c1` showed a z-score of -1. Under `Cc1ccc(S(=O)(=O)NCC(=O)OCC(=O)Nc2ccccc2OC(F)F)cc1` stands -0.526; under `Cc1nc(C)n(CC(O)COc2ccc3c(c2)CCC3)n1` (stereo not given), 0.329; under `Cc1ccc(NC(=O)/C(=C/c2cccs2)NC(=O)c2ccco2)cc1`, -0.139.

For `COC(=O)c1ccc(C2C(Oc3ccc(OC)cc3)C(=O)N2CCc2ccc(OC)c(OC)c2)cc1` (stereo not given), the z-score was -0.234.

`CC(Cc1cccs1)NC(=O)Nc1cccc(Cl)c1` (stereo not given) registered a z-score of -0.475. The molecule `O=C(CC1Oc2ccccc2NC1=O)NCCCN1CCOCC1` (stereo not given) showed a z-score of -0.213. The figure for `O=C(CNC(c1ccccc1)c1ccccc1)Nc1ccc(F)cc1` is -0.356; for `COc1ccc2c(c1)[nH]c1c(=O)n(CCN3CCCC3)cnc12` it is 0.615; for `Cn1c(=O)c2cn3ncccc3c2n(C)c1=O` it is -0.362. In turn, `CCOC(=O)CN1CC23C=CC(O2)C(C(=O)NCCc2ccccc2)C3C1=O` (stereo not given) registered a z-score of 0.00167. In turn, `Cc1cc(Nc2ccc3ccccc3c2)n2ncnc2n1` displayed a z-score of -0.324.

In the case of `N#Cc1c(-c2ccccc2)nc(-c2ccccc2)nc1N1CCOCC1`, the z-score was 0.64. The figure for `Cc1ccc(N=Cc2ccc(O)cc2O)cc1F` is -0.104. Under `CCCNC(=O)c1ccc(CN2CCc3ccccc3C2)cc1` stands -0.12; under `CCCCNC(=O)Cc1coc2ccc3ccccc3c12`, 0.454. Under `COc1cc(NC2c3ccccc3C(=O)N2c2ccc(C)cn2)cc(OC)c1OC` (stereo not given) stands -0.25; under `CC/C(=C\C(=O)c1ccncc1)Nc1ccc(Br)cc1`, -0.23.

With `Cc1ccccc1OCC(=O)Nc1ccc(C(N)=O)cc1`, the z-score is -0.383.

On to `CC(C)(C)C(=O)CSc1nnc(-c2cccs2)n1CC1CCCO1` (stereo not given), for which the z-score was -0.131. The figure for `CCOc1cc(C2NC(=O)NC(C)=C2C(C)=O)cc(Cl)c1OCC(=O)O` (stereo not given) is 0.0829; for `COCCNC(=S)c1ccc(OC)cc1` it is 0.239.

The molecule `Cc1ccc(-c2nnc3n2N=C(c2ccccc2Br)CS3)cc1` displayed a z-score of -0.151. The figure for `COc1ccc(CCNc2nc(C)nc3c2oc2ccccc23)cc1OC` is -0.784.

Turning to `COc1ccc(NC(C)=O)cc1NC(=O)CN1CCN(CC(=O)Nc2ccc(Cl)cc2)CC1`, the z-score is -0.613.

`CCOc1ccc(NCc2nnc(SCC(=O)Nc3cc(C)on3)n2-c2ccccc2OC)cc1` had a z-score of -0.159. Take `CCN(CC)S(=O)(=O)c1c(Br)cc(C)cc1Br`: the z-score worked out at 0.202. Under `O=c1c2ccccc2nc(SCc2cn3ccsc3n2)n1-c1ccc(F)cc1` stands active: -3.79; under `Cc1csc(NC(=O)CSc2nnc(NC(=O)C3CC(=O)N(c4ccccc4)C3)s2)n1` (stereo not given), -0.351; under `c1ccc(N2CCN(c3nc4ccccc4n4cnnc34)CC2)cc1`, -0.281. In the case of `O=C(CO/N=C/c1ccccc1O)N1CCc2ccccc21`, the z-score was -0.0476.

`CC(=O)c1cccc(NC(=S)NC2CC2)c1` yielded a z-score of -0.023. In the case of `CCCC(=O)OCC(=O)Nc1ccccc1Sc1ccccc1`, the z-score is -0.604.

On to `Cc1ccccc1OCc1n[nH]c(=S)n1Cc1ccccc1`, for which the z-score stood at 0.94. The figure for `Clc1ccc2c(c1)C1=C(C(c3ccncc3)O2)C(c2ccc(Br)cc2)n2ncnc2N1` (stereo not given) is -0.206; for `COc1cc(NC(=O)c2ccco2)c(OC)cc1NC(=O)CCC(=O)Nc1cccc(C)c1C` it is -0.133; for `CCCCOC(=O)c1ccc(NC(=O)c2cnccn2)cc1` it is 0.00424. `COc1ccc(C(O)c2nccn2Cc2ccccc2)cc1` (stereo not given) returned a z-score of -0.225. The figure for `CC(=O)Nc1ccc(-c2cc(-c3ccccc3)nc(-c3ccccc3)n2)cc1` is -0.205.

The molecule `C=CCn1cc([N+](=O)[O-])nc1C` showed a z-score of -0.339. Under `O=C(CCC1CCCCC1=O)c1ccccc1` (stereo not given) stands 0.0492; under `COc1ccc(Cl)cc1NC(=O)CCc1ccccc1`, -0.364; under `CCn1cc(C(=O)O)c(=O)c2cc(OC)ccc21`, 0.0453. The figure for `CN(CC(=O)Nc1c(Cl)cccc1Cl)C(=O)CCCN1C(=O)c2ccccc2C1=O` is -0.0272.

Turning to `N#CC1=C(N)Oc2n[nH]c(-c3ccc(F)cc3)c2C1c1cccnc1` (stereo not given), the z-score is -0.85. `CN(Cc1cn(-c2ccccc2)nc1-c1ccc(F)cc1)C(=O)CCC(=O)O` had a z-score of 0.0103.

For `Cc1ccc2nc(SCC(=O)Nc3ccc(C)c([N+](=O)[O-])c3)[nH]c2c1`, the z-score was found to be 0.188.

Molecule `O=C(CSc1ccc2nnc(-c3cccnc3)n2n1)NCc1ccco1` displayed a z-score of -0.113. `O=C(CCn1cccc1)Nc1cc(F)ccc1F`: the z-score was -0.224. The figure for `COc1cccc(NC(=O)C2CCN(c3ncccn3)CC2)c1` is 0.0761. The figure for `O=C(CCCCC(=O)NCc1cccs1)NCc1cccs1` is 0.0638; for `O=C1c2ccccc2C(=O)N1CCCn1c(=O)oc2ccccc21` it is -0.0485. Under `COc1ccc(NC(=O)c2nnn(Cc3cccc(F)c3)c2N)c(OC)c1` stands -0.0724; under `CCOC(=O)C1=C(COc2ccc(F)cc2Cl)NC(=O)NC1c1cc(C)ccc1C` (stereo not given), -0.0146.

`COC(=O)CC1C(=O)NC2CCCCC2N1C(=O)c1ccccc1` (stereo not given): the z-score turned out to be 0.157.

In turn, `COC(=O)c1ccccc1NC(=O)C1CCCC1` yielded a z-score of -0.824. For the molecule `COC(=O)c1ccc(CO/N=C(\NC(C)=O)c2nonc2NC(C)=O)cc1`, the z-score was -0.173.

`Cc1ccc(NC(=O)[C@@H](NC(=O)c2cccc(S(=O)(=O)N3CCOCC3)c2)C(C)C)cc1C` gave a z-score of -0.248. The figure for `O=C(Nc1cccc(C(F)(F)F)c1)c1ccccc1NC(=O)C1CCCCC1` is 0.458; for `Cc1cc(C(=O)Nc2c(C)cccc2C)n(-c2ccccc2)n1` it is -0.132; for `Cc1ccc(S(=O)(=O)CC(=O)NC2CC2)cc1` it is -0.0321. With `O=C(Nc1ccccc1C(=O)NC1CCCCC1)c1ccco1`, the z-score is -0.17. The molecule `COc1ccccc1NC(=S)NNC(=O)c1cc(C)nn1C` showed a z-score of -0.259. `COc1cc(C2NC(=O)NC(C)=C2C(=O)OC(C)C)ccc1OC(=O)c1ccco1` (stereo not given) yielded a z-score of -0.321. The figure for `COC(=O)c1sc2nc(CSc3nc4ccc(C)cc4[nH]3)[nH]c(=O)c2c1C` is -0.816; for `COc1cc(C2C3C(=O)N(c4ccc(F)cc4)C(=O)C3ON2c2ccccc2)ccc1O` (stereo not given) it is -0.474; for `Cc1c(C(=O)N2CC(C)OC(C)C2)sc2nc(-c3ccccc3)cn12` (stereo not given) it is -0.0847. In turn, `COc1ccc(/C=C(\NC(=O)c2ccccc2)C(=O)N/N=C/c2ccncc2)cc1` yielded a z-score of 0.162. For the molecule `CCOC(=O)c1c(NC(N)=O)sc(C)c1C`, the z-score was -0.487. `Cc1ccc(-n2ncc3c(=O)n(CC(=O)NC4CCCC4)cnc32)cc1C` showed a z-score of -0.127.

`O=C(Nc1ccccc1C(=O)O)c1ccccc1` showed a z-score of 0.14. Under `Cc1ccc(-c2nc(NCc3ccco3)c3ccccc3n2)cc1` stands 0.0674.

`COc1ccccc1N1CCN(C(=O)C(C)N(c2ccc(C)c(C)c2)S(C)(=O)=O)CC1` (stereo not given) gave a z-score of -0.0107. Under `O=C(Nc1cccn(Cc2c(Cl)cccc2Cl)c1=O)c1ccc(Cl)cc1Cl` stands 0.00481; under `Cc1ccc2c(c1)SC1=NC(c3ccccc3)(C(F)(F)F)NC(=O)N12` (stereo not given), 0.232.

As for `COc1ccc(C2CC(=O)C(C=NCCO)=C(O)C2)cc1OC` (stereo not given), the z-score was -0.0297.

As for `O=C(COC(=O)c1ccc(S(=O)(=O)NCc2ccco2)cc1)Nc1ncc(Cl)cc1Cl`, the z-score is 0.00713. In turn, `O=C(NCc1ccco1)C1CC(=O)N(CCc2ccccc2)C1` (stereo not given) yielded a z-score of -0.445.

On to `COC(=O)Cc1c(C)nc2nc(-c3ccc(Cl)cc3)[nH]n2c1=O`, for which the z-score was -0.123. The figure for `O=C(c1cc2ccccn2n1)N1CCCC1` is -0.155; for `Cc1cccc[n+]1C1C(c2ccccc2)C(C#N)=C(C(=C=[N-])C#N)NC1(O)C1CC1` (stereo not given) it is 0.0116. Under `CCOC(=O)CSc1nnc(CNc2ccc(Cl)cc2)n1Cc1ccccc1` stands -0.258; under `O=C(Nc1ccccc1C(=O)O)c1ccc(NC(=O)c2ccc(Br)o2)cc1`, active: -3.02; under `COC(=O)CSc1nc(C)c(Oc2ccccc2)c(=O)[nH]1`, -0.000796.

In turn, `Cc1onc(-c2ccccc2)c1C(=O)Nc1cc(C(F)(F)F)ccc1N1CCOCC1` yielded a z-score of 0.981. For `CCCCNC(=O)CN1CCC2(O)CCCCC2C1c1ccccc1OC` (stereo not given), the z-score was -0.626. Under `Cc1cccc(S(=O)(=O)NNC(=O)c2sc(C)nc2C)c1` stands -0.183; under `COc1cc(/C=C/C(=O)NNc2c(F)c(F)cc(F)c2F)ccc1OC(F)F`, -0.988. Molecule `C=CCOC(=O)C1=C(C)Nc2[nH]c(=O)[nH]c(=O)c2C1c1cccc(OC)c1` (stereo not given) had a z-score of 0.219.

`CC(NC(=O)COc1ccccc1)C(=O)NC1=NCCS1` (stereo not given): the z-score was active: 3.96. Under `Cc1nc(SCC(=O)c2ccccc2)c([N+](=O)[O-])[nH]1` stands -0.0328; under `COc1ccccc1C1/C(=C(/O)c2ccc(OC(C)C)cc2)C(=O)C(=O)N1c1cc(C)on1` (stereo not given), -1.62; under `CCN(CC)S(=O)(=O)c1cccc(C(=O)NCCCN2CCOCC2)c1`, 0.102. In turn, `COc1cccc(C(Nc2ccccn2)c2c(NC(=O)c3ccco3)sc(C)c2C)c1` (stereo not given) returned a z-score of -0.418. The figure for `COc1ccc(Cn2c(C)c(C)c(C#N)c2NC(=O)Nc2ccc(F)cc2)cc1` is -0.265.
